Measurements from PubChem BioAssay AID686978 (National Center for Advancing Translational Sciences (NCATS), 2013).
In all, about 420,000 compounds went through this assay and about 64,000 (15%) were called active. The shares of active, inactive and inconclusive entries below differ from those in the screen. Calls come from the whole dose curve; as a rule, active = well fitted inhibition curve with a large enough effect; inconclusive = small, poorly fitted or top-dose-only effect; inactive = flat fitted curve, though single readings scatter. Potencies of inconclusive entries are left out as doubtful fits.

Assay: qHTS for Inhibitors of human tyrosyl-DNA phosphodiesterase 1 (TDP1): qHTS in cells in absence of CPT; note: nearly all actives have a fitted effect of over 55% in size
Settings: DT40 Tdp1-/- hTDP1 cells, no CPT, ATP luminescence, 48 h; series mostly up to 46.2 µM
How it was run: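 A cellular qHTS used chicken DT40 cells lacking endogenous Tdp1 but carrying stably transfected human TDP1. Compounds were applied without camptothecin, and cell growth kinetics were judged by ATP-dependent luminescence after ≥48 hr.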
Potency is the fitted concentration of half-maximal effect; tags give direction and shape of the fitted curve.

| Structure (SMILES) | Potency |
| --- | --- |
| COc1ccc(Cl)cc1NC(=O)COC(=O)CCCC1=NS(=O)(=O)c2ccccc2N1 | inactive |
| COc1cc(-c2c(C#N)c(=O)[nH]c3c2c(C)nn3-c2ccccc2)ccc1O | inconclusive [inhibitor, single point] |
| CCOc1ccc(C(=O)NCC(=O)OCC(=O)c2ccc3c(c2)-c2ccccc2C3)cc1 | inactive |
| Cc1ccccc1C(=O)N1CCN(c2ccc(NC(=O)c3cccc(OC(C)C)c3)cc2)CC1 | active: 3.26 µM |
| O=C(NNC1=NCCC1)c1cccc(S(=O)(=O)N2CCOCC2)c1 | inactive |
| COc1ccc(C(C[N+](=O)[O-])c2c(C)[nH]n(-c3ccccc3)c2=O)cc1 (stereo not drawn) | active: 16.4 µM |
| O=C(CSc1nc(-c2ccco2)cc(C(F)(F)F)n1)NC1CCCC1 | inconclusive [inhibitor, single point] |
| O=C(c1cc(-c2ccc(O)cc2)on1)N1CCN(c2ccc(F)cc2)CC1 | inconclusive [inhibitor, single point] |
| Cc1noc(/C=C/c2ccco2)c1S(=O)(=O)N1CCC(C(=O)N2c3ccccc3CC2C)CC1 (stereo not drawn) | active: 18.4 µM |
| Cc1c(Cl)c([N+](=O)[O-])nn1CC(=O)NCc1cccs1 | inconclusive [inhibitor, single point] |
| CC(=O)c1cccc(Nc2nc(-c3sc(N)nc3C)cs2)c1 | active: 16.4 µM |
| O=C1N/C(=N/c2ccccn2)SC1Cc1ccccc1 (stereo not drawn) | inconclusive [inhibitor, single point] |
| COCCCNC(=O)/C(C#N)=C/c1c(N2CCN(c3ccc(OC)cc3)CC2)nc2c(C)cccn2c1=O | active: 14.6 µM |
| O=C(Nc1ccccc1)N1CCc2c([nH]c3ccccc23)C1C(F)(F)F (stereo not drawn) | inconclusive [inhibitor, partial curve] |
| COc1cc2sc3ccc(-c4ccc(N(C)C)nc4)cc3c(=O)c2cc1OC | active: 5.8 µM |
| CCC1C(c2ccccc2)N(C)C(c2ccccc2)CC1(O)c1ccccc1 (stereo not drawn) | active: 23.1 µM |
| CCc1cc(C(=O)NCC(C)(C)N2CCOCC2)sc1C | inactive |
| CCOC(=O)c1c(C)oc2c(Cl)cc(NS(=O)(=O)c3ccc(Cl)c(C)c3)cc12 | active: 25.9 µM |
| N#C/C(=C/c1ccc(CNC(=O)C(=O)Nc2cc(Cl)cc(Cl)c2)o1)C(=O)NCc1cccnc1 | inconclusive [inhibitor, partial curve] |
| CCN(CC(=O)NCCCn1ccnc1)S(=O)(=O)c1ccc(C)cc1 | inactive |
| O=C1CN(C(=O)CSc2nc3cc(Cl)ccc3c(=O)n2Cc2ccccc2)c2ccccc2N1 | inconclusive [inhibitor, single point] |
| COc1ccccc1N(C(=O)c1ccncc1)c1nc(-c2ccc([N+](=O)[O-])cc2)cs1 | active: 16.4 µM |
| CCOC(=O)N1CCN(C(=O)C2CCC(CNS(=O)(=O)c3ccc(Cl)cc3)CC2)CC1 (stereo not drawn) | inconclusive [inhibitor, partial curve] |
| O=C1CSC(c2cn(-c3ccccc3)nc2-c2cc3ccccc3o2)N1Cc1ccccc1 (stereo not drawn) | inconclusive [inhibitor, single point] |

| Structure (SMILES) | Potency |
| --- | --- |
| COc1ccc(-c2cc(C(F)F)n3ncc(C(=O)Nc4cccc(S(=O)(=O)N5CCOCC5)c4)c3n2)cc1 | inconclusive [inhibitor, partial curve] |
| O=C(CCCCn1c(=O)[nH]c2ccsc2c1=O)N1CCN(c2cccc(Cl)c2)CC1 | active: 13 µM |
| Nc1[nH]n(-c2ccccc2)c(=O)c1N=Nc1ccc2ncsc2c1 | inactive |
| CCN(CC)CCCNC(=O)Cn1c(-c2cccs2)cc2cc(Cl)ccc21 | active: 20.6 µM |
| COc1ccc(Nc2c([N+](=O)[O-])ccc3c2=NC2(CCCCC2)N=3)cc1 | active: 20.6 µM |
| Cc1ccc(C(=O)OCC(=O)NCc2cccc(Cl)c2)cc1S(=O)(=O)N1CCCCC1 | inconclusive [inhibitor, single point] |
| Cc1cc(C(=O)Nc2ccccn2)cs1 | inconclusive [inhibitor, partial curve, poor fit] |
| CCOC(=O)c1c(C)[nH]c(C)c1S(=O)(=O)N(C)CC(=O)N1CCN(c2ccccc2OC)CC1 | inconclusive [inhibitor, full curve] |
| COC(=O)c1ccc(CSc2nnc3sc4ccccc4n23)o1 | inconclusive [inhibitor, partial curve, poor fit] |
| O=C(CN1CCCCCCC1)N/N=C/c1ccc(F)cc1F | inactive |
| COc1cccc(/C=N/NC(=S)NCCc2ccccc2)c1OC | inactive |
| CSC(SC)=C(C#N)C(=O)c1ccccc1 | active: 2.59 µM |
| COC(=O)c1c(NC(NC(=O)C(C)C)C(Cl)(Cl)Cl)sc2c1CCCC2 (stereo not drawn) | inactive |
| Cc1cc(C)c(/C=C/c2onc(C)c2S(=O)(=O)N2CCC(C(=O)NCc3ccco3)CC2)c(C)c1 | inconclusive [inhibitor, single point] |
| CN(C)c1ccc(/C=C/c2cccc[n+]2[O-])cc1 | inactive |
| COc1ccc(N=C2C(=Nc3ccc(OC)cc3)N(c3ccc(OC)cc3)C(=S)N2C(=O)c2ccc(OC)cc2)cc1 | active: 18.4 µM |
| COc1ccccc1NC(=O)CN1CCC(n2nnc3cc(F)ccc32)CC1 | inconclusive [inhibitor, single point] |
| O=C(CCS(=O)(=O)c1cccs1)N1CCN(c2ccc(F)cc2)CC1 | inactive |
| Cc1nn(CC(=O)N2CCN(c3ccccc3)CC2)c(=O)c2cccn12 | inactive |
| CCOC(=O)c1cc2sccc2n1CC(=O)C(C)(C)C | inactive |
| O=[N+]([O-])c1ccc(-c2cnc(SC(c3ccccc3)c3ccccc3)[nH]2)cc1 | inconclusive [inhibitor, single point] |
| CCOc1ccccc1C1CC(c2cccs2)=NN1S(C)(=O)=O (stereo not drawn) | inconclusive [inhibitor, single point] |
| O=c1[nH]c2cc(Cl)ccc2n1-c1ccccc1 | inactive |
| CCOCC(=O)Nc1nnc(COc2ccc(Cl)cc2)s1 | active: 23.1 µM |
